These results are taken from patent publication US10561143B2, “Fungicidal composition having synergistic effect” (JIANGSU HUIFENG AGROCHEMICAL CO., LTD., priority 2013, dated 2020).

The assay deals with downy mildew pathogens of grape. Nature of the assay: Toxicity test on downy mildew pathogens of grape (disease index and control effect on whole grape plants, EC50 and co-toxicity coefficient).
Where [1] appears, read: Table 7, standard benziothiazolinone.
The mark [2] stands for this setting: Table 10, standard printed as benziothiazolinone hydrochloride.
Where [3] appears, read: Table 2, standard benziothiazolinone.
Where [4] appears, read: Table 3, standard benziothiazolinone.
Setting [5] is: Table 4, standard benziothiazolinone.
Where [6] appears, read: Table 5, standard benziothiazolinone.
The mark [7] stands for this setting: Table 6, standard benziothiazolinone.
Where [8] appears, read: Table 8, standard benziothiazolinone.
[9] abbreviates: Table 9, standard benziothiazolinone.

On to `C[C@@]1(c2ccc(Oc3ccccc3)cc2)OC(=O)N(Nc2ccccc2)C1=O` (racemic) [Famoxadone], for which, under setting [1], the “ATI (actual toxicity index)” value was 82.26.

For `Cl.O=c1[nH]sc2ccccc12` [Benziothiazolinone hydrochloride], under setting [2], the “ATI (actual toxicity index)” value is 100.

As to `O=c1[nH]sc2ccccc12` [Benziothiazolinone], the “ATI (actual toxicity index)” value was found to be 100 under setting [3]; 100 under setting [4]; 100 under setting [5]; 100 under setting [6]; 100 under setting [7]; 100 under setting [1]. Further, the “ATI (actual toxicity index)” value is, setting by setting: under setting [8], 100; under setting [9], 100.

Turning to `O=C(Nc1ccccc1-c1ccc(Cl)cc1)c1cccnc1Cl` [Boscalid], the “ATI (actual toxicity index)” value under setting [5] amounted to 81.48.

For the compound `CSC1=N[C@@](C)(c2ccccc2)C(=O)N1Nc1ccccc1` [Fenamidone], the “ATI (actual toxicity index)” value under setting [6] is recorded as 82.86.

For `O=[N+]([O-])c1cc(C(F)(F)F)c(Cl)c([N+](=O)[O-])c1Nc1ncc(C(F)(F)F)cc1Cl` [Fluazinam], under setting [2], the “ATI (actual toxicity index)” value stood at 114.5.

As to `O=C(NCc1ncc(C(F)(F)F)cc1Cl)c1c(Cl)cccc1Cl` [Fluopicolide], the “ATI (actual toxicity index)” value under setting [7] is on record as 79.44.

For `CO/C=C(/C(=O)OC)c1ccccc1COc1cccc(C(F)(F)F)n1` [Picoxystrobin], the “ATI (actual toxicity index)” value under setting [9] came to 92.62.

As to `OC(Cc1ccccc1Cl)(Cn1nc[nH]c1=S)C1(Cl)CC1` (stereo not drawn) [Prothioconazole], the “ATI (actual toxicity index)” value under setting [4] was determined as 75.79.

With `CCC(C)(NC(=O)c1cc(Cl)c(C)c(Cl)c1)C(=O)CCl` (stereo not drawn) [Zoxamide], the “ATI (actual toxicity index)” value under setting [3] came out at 81.9.

With `COC(=O)N(OC)c1ccccc1COc1ccn(-c2ccc(Cl)cc2)n1` [pyraclostrobin], the “ATI (actual toxicity index)” value under setting [8] is recorded as 110.85.
